# Laboratory results as given in PubChem BioAssay AID602340 (Broad Institute, 2012).
# The campaign covered roughly 330,000 compounds. About 2,600 (0.79%) were called active. The shares of active, inactive and inconclusive entries below differ from those in the screen.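 Rule for the calls: active = mean ATP rescue above about 67%, or every replicate alone reaching that limit (limit read from the data, passing the limit was not always enough); inconclusive = no clear call, values can overlap the other calls; inactive = mean under the limit and some replicate under it.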
# Assay: suppressors of statin myotoxicity in C2C12 myotubes, primary screen, cell-based, single point, plate reader (AID 602340);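 note: myotubes were challenged with 10 µM simvastatin during compound exposure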
# Conditions: C2C12 myotubes + simvastatin, ATP luminescence, 48 h; at 7.49 µM; stronger effect = higher value; scaled: DMSO 0, geranylgeraniol control 100
row,SMILES,rescue of ATP level
1,C[C@@H]1CN([C@@H](C)CO)C(=O)c2cc(NC(=O)CCC(F)(F)F)ccc2O[C@@H](C)CCCCO[C@@H]1CN(C)Cc1ccc(C(F)(F)F)cc1,inconclusive: 68.4%
2,CN(NC(=O)c1ccccc1F)c1ccc([N+](=O)[O-])cn1,inconclusive: 70%
3,CCCOC(=O)CCCCCCCCC(O)CN1CCCCC1 (centres undefined),inconclusive: 0.501%
4,O=Cc1cc(Br)c(OC(=O)N2CCOCC2)c(Br)c1,inconclusive: 6.93%
5,C[C@H](CO)N1C[C@H](C)[C@@H](CN(C)Cc2ccc(C(F)(F)F)cc2)Oc2ccc(NS(=O)(=O)c3cccs3)cc2CC1=O,inconclusive: 79.8%
6,COc1ccc(CN(Cc2cccn2C)C(=O)c2cc3cc(OC)ccc3[nH]2)cc1,active: 124%
7,COCCOCCn1c(CCCO)nc2ccccc21,active: 82.3%
8,CC(C)NC(=O)N(C)C[C@@H]1Oc2ccc(NC(=O)Nc3cccc4ccccc34)cc2CC(=O)N([C@@H](C)CO)C[C@@H]1C,inconclusive: 73.5%
9,Cc1ccc(C)c(N=C2NC(=O)CS2)c1,inconclusive: 73.8%
10,Cc1noc(C)c1S(=O)(=O)Nc1cccc2c1O[C@@H](CN(C)S(C)(=O)=O)[C@@H](C)CN([C@H](C)CO)C2=O,inconclusive: 69.8%
11,CCCCn1c(C(C)NC(=O)c2cccs2)nc2ccccc21 (centres undefined),active: 135%
12,COc1ccc(S(=O)(=O)N(C)C[C@@H]2Oc3c(NC(=O)c4cc(C)nn4C)cccc3C(=O)N([C@H](C)CO)C[C@@H]2C)cc1,inactive: -28.6%
13,O=C1c2cccc3c([N+](=O)[O-])ccc(c23)C(=O)N1c1ccc(Cl)cn1,active: 129%
14,COc1ccccc1NC(=O)N[C@@H]1CC[C@H](CCNC(=O)Cc2ccccn2)O[C@@H]1CO,inactive: -4.15%
15,Cc1cc(C)c(C#N)c(SCC(=O)N2CCN(Cc3ccccc3)CC2)n1,active: 140%
16,C[C@H]1CN([C@@H](C)CO)C(=O)c2cc(NC(=O)Nc3ccc(C(F)(F)F)cc3)ccc2O[C@H]1CN(C)C(=O)Nc1cccc2ccccc12,inconclusive: 79.4%
17,COc1ccc(O)c(/C=N/NC(=O)c2ccc(N3CCCC3=O)cc2)c1,inconclusive: 75.5%
18,Cn1ncc(Cl)c1C(=O)Nc1cccnc1,active: 101%
19,C[C@H](CO)N1C[C@H](C)[C@@H](CN(C)C(=O)CN(C)C)Oc2cc(C#CC(C)(C)O)ccc2S1(=O)=O,inactive: 19.6%
20,COc1cccc(-c2cnc3c(c2)C(=O)N([C@H](C)CO)C[C@H](C)[C@H](CN(C)C(=O)Nc2cccc4ccccc24)O3)c1,inconclusive: 87.4%
21,Cc1c(C2(O)C(=O)Nc3ccc(F)cc32)c(=O)n(-c2ccccc2)n1C (centres undefined),inactive: -1.42%
22,Cc1nnc(NC(=O)CSc2nc(C(C)C)nc3ccccc23)s1,inconclusive: 95.2%
23,COc1ccccc1C(=O)N1C[C@@H]2[C@H](c3ccccc31)[C@H](CO)N2CC1CCOCC1,inactive: -1.19%

row,SMILES,rescue of ATP level
1,O=C(Nc1ccc(F)c(Cl)c1)C1CCCN(c2cnccn2)C1 (centres undefined),active: 110%
2,CCC(=O)N1CCc2cc(Br)cc(S(=O)(=O)CC(=O)OC)c21,active: 105%
3,Cc1ccc(CCNC(=O)c2ccc3nc4ccccc4c(=O)n3c2)cc1,inconclusive: 32.6%
4,CN(C)C(=O)c1ccc(-c2ccc3c(c2)[C@H]2[C@H](CCN2C(=O)c2ccccc2)[C@@H](CO)N3)cc1,inactive: 6.65%
5,CCN1C(=O)C2C(C1=O)N1C(c3ccccc3)C3C(=O)N(CC)C(=O)C3N1C2c1ccccc1 (centres undefined),inconclusive: 65.9%
6,C[C@@H]1CN([C@@H](C)CO)C(=O)Cc2cc(NC(=O)Cn3cnnn3)ccc2O[C@H]1CN(C)Cc1ccc(Oc2ccccc2)cc1,inconclusive: 88.5%
7,O=C(CSc1nnc(COc2ccccc2)o1)NCCc1ccccc1,inconclusive: 68.6%
8,C[C@H]1CN([C@@H](C)CO)C(=O)c2cccc(NS(=O)(=O)c3cccs3)c2O[C@@H]1CN(C)C(=O)Nc1ccc(C(F)(F)F)cc1,active: 86.2%
9,O=C(NCC[C@@H]1CC[C@H](NS(=O)(=O)c2cccc(F)c2)[C@H](CO)O1)C1CCC1,inactive: 4.57%
10,O=C(Nc1ccc2c(c1)OCCO2)c1ccc(S(=O)(=O)N2CCCCC2)cc1,inconclusive: 65.6%
11,C[C@H](CO)N1C[C@H](C)[C@@H](CN(C)Cc2ccc(Oc3ccccc3)cc2)Oc2ccc(NC(=O)CCC(F)(F)F)cc2CC1=O,active: 93.2%
12,Cc1ccc2c(c1)C(c1ccc(F)cc1)N(C(=O)c1ccccc1Br)CC(=O)N2 (centres undefined),inconclusive: 35.4%
13,CCC(=O)N(Cc1cc(=O)[nH]c2ccccc12)c1ccc(C)cc1,inconclusive: 11.7%
14,CO[C@H]1CC[C@@H]2CCOc3ccc(C#N)cc3C(=O)N(C)C[C@@H](OC)[C@@H](C)C(=O)N(C)C[C@H]1O2,active: 75.4%
15,Cc1noc(C)c1NC(=O)Nc1ccc2c(c1)C(=O)N([C@@H](C)CO)C[C@@H](C)[C@@H](CN(C)C(=O)Nc1cccc3ccccc13)O2,inconclusive: 75.4%
16,CCOC(=O)c1ccc(NC(=O)CC2SCCNC2=O)cc1 (centres undefined),inactive: -0.758%
17,C[C@@H]1CCCCO[C@@H](CN(C)C(=O)c2ccccc2)[C@H](C)CN([C@@H](C)CO)C(=O)c2cc(NC(=O)NC3CCCCC3)ccc2O1,inconclusive: 69.7%
18,CN(C)c1ccc2c(c1)[C@@H]1C[C@@H](CC(=O)NCCc3ccccc3)O[C@H](CO)[C@@H]1O2,inactive: -0.819%
19,O=C(c1ccccc1)C1C(c2ccccc2)C1[N+](=O)[O-] (centres undefined),inconclusive: 75.7%
20,C[C@@H]1CN([C@@H](C)CO)C(=O)c2cc(NS(=O)(=O)c3cccs3)ccc2O[C@@H]1CN(C)Cc1ccc2c(c1)OCO2,inconclusive: 65.8%
21,COc1ccc(NC(=O)C2(N(CC(C)C)C(=O)Cn3nnnc3N)CCCCC2)cc1,inconclusive: 81.8%
22,COc1ccc(NC(=O)Nc2ccc3c(c2)C(=O)N([C@@H](C)CO)C[C@@H](C)[C@H](CN(C)C(=O)c2ccccc2)OCCCC[C@H](C)O3)cc1,inconclusive: 91.1%
23,C[C@H](CO)N1C[C@H](C)[C@H](CN(C)S(=O)(=O)c2cccs2)Oc2ccc(N(C)C)cc2CC1=O,inactive: -50.6%

row,SMILES,rescue of ATP level
1,CCC(C)N(C(=O)c1csnn1)C(C(=O)NCc1ccc(F)cc1)c1ccccc1 (centres undefined),inconclusive: 68.9%
2,COc1ccc(NC(=O)Nc2ccc3c(c2)CC(=O)N([C@H](C)CO)C[C@@H](C)[C@@H](CN(C)Cc2ccc(Oc4ccccc4)cc2)O3)cc1,inactive: -228%
3,O=C1S/C(=C\c2ccc(N3CCOCC3)o2)C(=O)N1Cc1ccc(F)cc1,inconclusive: 78%
4,COc1cccc(-c2cnc3c(c2)C(=O)N([C@H](C)CO)C[C@H](C)[C@H](CN(C)Cc2ccccc2)O3)c1,inconclusive: 46.7%
5,C[C@H](NC(=O)[C@@H]1Cc2ccccc2CN1C(=O)OC(C)(C)C)C(=O)NC1CCCCC1,inconclusive: 73.7%
6,O=C(CC(NC(=O)c1ccccc1Cl)c1ccccc1)NC1=NCCS1 (centres undefined),inconclusive: 3.44%
7,CCCn1c2c(c(O)c(C(=O)NC)c1=O)CCCC2,active: 119%
8,Cc1c(C(=O)Nc2ccc(OCc3ccccc3)cc2)cccc1[N+](=O)[O-],inconclusive: 83.4%
9,O=C(Oc1ccc(C(=S)N2CCOCC2)cc1Br)c1ccccc1F,active: 149%
10,CCN(CC)S(=O)(=O)c1ccc(F)c(C(=O)OC2CC(C)OC2=O)c1 (centres undefined),inconclusive: 70.3%
11,CN1C(=O)c2cc(NC(=O)c3ccc(F)c(F)c3)ccc2OC[C@H]2O[C@@H](CC(=O)N3CCOCC3)CC[C@H]21,inactive: -2.29%
12,Cc1nc(NCc2ccco2)c2cn[nH]c2n1,active: 95.3%
13,Cc1ccc(S(=O)(=O)Nc2ccc3c(c2)CC(=O)N([C@@H](C)CO)C[C@@H](C)[C@H](CN(C)Cc2ccc(Oc4ccccc4)cc2)O3)cc1,active: 83.1%
14,C[C@@H]1CN([C@@H](C)CO)C(=O)Cc2cc(NC(=O)Cc3cn(C)c4ccccc34)ccc2O[C@@H]1CN(C)S(=O)(=O)c1ccc(F)cc1,inconclusive: 79.8%
15,C[C@H](CO)N1C[C@H](C)[C@@H](CN(C)C(=O)Nc2ccc(F)cc2)Oc2ccc(NC(=O)Cc3cn(C)c4ccccc34)cc2CC1=O,inconclusive: 67%
16,CO[C@@H]1CN(C)C(=O)c2ccc(NC(=O)C3CC3)cc2OC[C@H](C)N(C(=O)CN(C)C)C[C@@H]1C,inactive: 4.98%
17,Cc1ccc(-c2nnn(CC(=O)N(c3ccccc3F)C(C(=O)NC3CCCC3)c3ccco3)n2)o1 (centres undefined),inconclusive: 71.6%
18,COc1ccc(-c2ccc([C@H]3[C@@H](C#N)N(C(=O)NC4CCCCC4)[C@@H]3CO)cc2)cc1,inconclusive: 68.2%
19,C[C@@H]1CN([C@H](C)CO)C(=O)c2cccc(N(C)C)c2O[C@@H]1CN(C)Cc1ccc(C(=O)Nc2ccccc2N)cc1,inconclusive: 68.2%
20,COc1ccc(NC(=O)N(C)C[C@H]2OCCCC[C@H](C)Oc3ccc(NS(=O)(=O)c4c(C)noc4C)cc3C(=O)N([C@@H](C)CO)C[C@H]2C)cc1,inconclusive: 66.2%
21,COc1ccc(S(=O)(=O)Nc2ccc3c(c2)CC(=O)N([C@H](C)CO)C[C@H](C)[C@@H](CN(C)Cc2ccc(C(F)(F)F)cc2)O3)cc1,inconclusive: 85.3%
22,Cc1noc(C)c1S(=O)(=O)Nc1cccc2c1O[C@H](CN(C)C(=O)Nc1ccc(F)cc1)[C@H](C)CN([C@H](C)CO)C2=O,inconclusive: 76.7%
23,O=C(CN1CCN(c2cccc(C(F)(F)F)c2)CC1)Nc1cccc(C(F)(F)F)c1,inconclusive: 66.8%
